From PMC4336329 (PLoS ONE, 2015)
Out of some 310,000 compounds screened, about 2,200 (0.71%) showed an effect of 50% or more. Effects have a minus sign here. The list shows a part of the results.

Target: human ether-à-go-go-related gene (hERG) potassium channel (human, UniProt Q12809)
Assay: primary screen, population patch clamp on CHO cells stably expressing hERG

Chain of human ether-à-go-go-related gene (hERG) potassium channel (Q12809 whole entry, looked up): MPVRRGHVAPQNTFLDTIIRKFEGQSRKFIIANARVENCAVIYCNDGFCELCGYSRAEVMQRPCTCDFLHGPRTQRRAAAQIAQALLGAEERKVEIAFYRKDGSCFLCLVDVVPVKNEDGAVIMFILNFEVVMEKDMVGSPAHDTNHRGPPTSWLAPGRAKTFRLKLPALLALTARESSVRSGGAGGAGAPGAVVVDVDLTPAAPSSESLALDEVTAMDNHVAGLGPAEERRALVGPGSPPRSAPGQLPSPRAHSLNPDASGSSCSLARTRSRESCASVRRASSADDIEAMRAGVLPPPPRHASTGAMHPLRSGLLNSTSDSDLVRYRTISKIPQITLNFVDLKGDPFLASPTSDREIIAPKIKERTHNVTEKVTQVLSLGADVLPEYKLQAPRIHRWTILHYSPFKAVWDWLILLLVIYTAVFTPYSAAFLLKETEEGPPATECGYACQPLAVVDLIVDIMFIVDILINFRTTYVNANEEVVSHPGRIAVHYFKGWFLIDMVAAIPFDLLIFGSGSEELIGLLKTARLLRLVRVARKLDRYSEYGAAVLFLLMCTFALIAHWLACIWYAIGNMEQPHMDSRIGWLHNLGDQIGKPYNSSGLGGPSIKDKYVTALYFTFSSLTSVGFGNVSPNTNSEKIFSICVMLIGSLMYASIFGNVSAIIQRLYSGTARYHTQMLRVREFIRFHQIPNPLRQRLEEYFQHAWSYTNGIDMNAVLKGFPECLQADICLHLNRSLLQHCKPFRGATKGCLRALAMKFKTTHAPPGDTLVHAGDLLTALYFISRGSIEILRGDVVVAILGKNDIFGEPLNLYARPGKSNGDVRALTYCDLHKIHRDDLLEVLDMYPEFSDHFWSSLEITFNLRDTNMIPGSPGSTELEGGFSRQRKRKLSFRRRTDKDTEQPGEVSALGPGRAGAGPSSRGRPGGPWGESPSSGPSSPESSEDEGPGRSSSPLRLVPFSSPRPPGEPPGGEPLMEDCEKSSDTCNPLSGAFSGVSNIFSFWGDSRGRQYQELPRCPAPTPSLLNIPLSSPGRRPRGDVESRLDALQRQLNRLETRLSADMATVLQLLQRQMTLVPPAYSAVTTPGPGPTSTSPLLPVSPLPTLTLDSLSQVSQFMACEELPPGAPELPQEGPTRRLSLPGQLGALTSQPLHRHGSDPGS

| Structure (SMILES) | hERG current change (%, negative = inhibition) at 1uM |
| --- | --- |
| Cc1nn(C(C)(C)C)c(OC(=O)c2cccs2)c1Sc1ccccc1 | -7.79% |
| O=C(Cc1ccccc1)NNC(=O)Cc1ccccc1 | 12.4% |
| Cc1ccc(Cl)cc1N1CCN(C(=O)COc2ccc(S(=O)(=O)NC(C)C)cc2)CC1 | 27.5% |
| O=[n+]1cc(-c2ccc(F)cc2)n([O-])c2c1CCC2 | 13.4% |
| CCC1CCC(C(=O)NNC(=O)OC)CC1 (centres unmarked) | 5.41% |
| O=C1CCN(CCc2ccccc2)CCN1CCSc1ccccc1 | -36.9% |
| COc1ccc(C2=CC(=O)CC(c3ccc(F)cc3)C2)cn1 (centres unmarked) | 8.39% |
| CCN(CCNC(=O)c1ccc(C#N)cc1)c1cccc(C)c1 | 1.68% |
| CCOC(=O)C1=C(CC)Nc2ccccc2N=C1NC(=O)c1ccc(S(=O)(=O)N2CCCC2)cc1 | 11.2% |
| CC(NC(=O)c1cc(-c2ccncc2)nc2ccc(Cl)cc12)C1CCCO1 (centres unmarked) | 9.3% |
| O=C(O)c1nn(-c2ccc(F)cc2)ccc1=O | 20.6% |
| O=C(COc1ccc(Cl)cc1)NCc1nnc(SCC(=O)NC2CCCCC2)o1 | 15.6% |
| Cc1csc(C(C#N)C(=O)c2cc3ccccc3o2)n1 (centres unmarked) | -1.01% |
| CCc1ccccc1N1C(=O)CC(N2CCc3ccccc32)C1=O (centres unmarked) | 5.28% |
| O=S(=O)(Nc1ccc(-n2cnnn2)cc1)c1ccc(Cl)cc1 | -0.356% |
| Clc1ccc(NC2=NCCCS2)cc1Cl | 13.8% |
| CC(OC(=O)c1ccccn1)C(=O)Nc1ccc(C(F)(F)F)cc1 (centres unmarked) | 10.3% |
| CC(C)N(CC(N)=O)c1ccc(S(=O)(=O)N2CCCC2)cn1 | -6.43% |
| O=C(NCC(c1ccco1)N1CCCC1)c1cccc(S(=O)(=O)N2CCOCC2)c1 (centres unmarked) | 4.06% |
| O=C(c1ccccc1)N1CC(COc2ccccc2)OC(c2ccco2)O1 (centres unmarked) | -2.67% |
| Cc1ccc(N(C(=O)Cn2nnc(-c3ccc(F)cc3)n2)C(C(=O)NC(C)(C)C)c2ccncc2)cc1 (centres unmarked) | 10% |
| CN(c1ccccc1)S(=O)(=O)c1cccc(NC(=O)Cn2cnc3c2c(=O)n(C)c(=O)n3C)c1 | 3.38% |
| COc1ccccc1/C=C/C(=O)N1CCCC1 | 11% |

| Structure (SMILES) | hERG current change (%, negative = inhibition) at 1uM |
| --- | --- |
| CC(C)(C)NS(=O)(=O)c1ccc(CCC(=O)N2CCCC2)cc1 | 16.5% |
| COc1ccc(S(=O)(=O)NC2CC(C)(C)NC(C)(C)C2)cc1C(C)C | 10.3% |
| O=C1C2CC=C(Cl)CC2C(=O)N1CN(Cc1ccco1)CN1C(=O)C2CC=C(Cl)CC2C1=O (centres unmarked) | 11.3% |
| COCCNc1nc(C)cc(-c2cc(C(=O)NC3CCCC3)on2)n1 | 5.78% |
| Cc1cccn2c(=O)c3cc(C(=O)NC4CCCCC4)c(=N)n(CCN4CCOCC4)c3nc12 | -51.7% |
| COc1ccc(N=C2C(=Nc3ccc(OC)cc3)N(c3ccc(OC)cc3)C(=S)N2C(=O)c2ccc(OC)cc2)cc1 | -9.35% |
| CSc1ccccc1NC(=O)CSCc1ccc(Br)cc1 | 6.37% |
| CCOC(=O)c1[nH]c(C)c(C(=O)OCC(=O)N2CCc3ccccc32)c1C | 5.29% |
| O=C(CCC(=O)N1CCOc2ccccc21)Nc1ccc(F)cc1F | 7.61% |
| COc1cc(C2NC(=O)NC(C)=C2C(=O)OCc2ccc(C)cc2)cc(OC)c1O (centres unmarked) | -4.75% |
| Cc1cc(=O)[nH]c(SCC(=O)Nc2ccc(Cl)cn2)n1 | 12.7% |
| CN(C)C(=O)c1cc(Br)ccc1Cl | 14.3% |
| COCc1nnc(NC(=O)CS(=O)(=O)Cc2ccccc2)s1 | 18.6% |
| O=C(CN1CCN(c2ccccc2)CC1)NC(=O)NCc1ccco1 | 15.3% |
| O=C(Nc1ccccc1OC(F)F)C1CC(=O)N(Cc2ccccc2)C1 (centres unmarked) | 15.6% |
| Cc1ccc2c(CN3CCN(Cc4ccccc4)CC3)cc(=O)oc2c1C | -5.81% |
| CCOC(=O)CCSc1nc(C)c2cc(C)ccc2n1 | 13.7% |
| CC1=NN(C(=O)c2ccc(Br)cc2)C(O)(c2ccccc2)C1 (centres unmarked) | 11.3% |
| CCCn1nc(NS(=O)(=O)c2ccccc2)c2cc3ccccc3nc21 | 1.03% |
| COC(=O)C1CCN(C(=O)c2ccc3nccnc3c2)CC1 | 7.4% |
| CCN(CC)S(=O)(=O)c1ccc2c(c1)c(=O)c(C(=O)NCc1cccs1)cn2C | 13.7% |
| CCOc1ccc(OCCC(=O)N2CCN(S(=O)(=O)c3ccc(OCC)cc3)CC2)cc1 | 1.22% |
| Cc1cccc(NC(=S)NNC(=O)c2csc(C(C)C)c2)c1 | -3.48% |

| Structure (SMILES) | hERG current change (%, negative = inhibition) at 1uM |
| --- | --- |
| CCCCN(C(=O)c1cc(CC)c(C)s1)c1c(N)n(CCC)c(=O)[nH]c1=O | -10.8% |
| N#CCc1cccnc1Sc1ccc(Cl)cc1 | 9.12% |
| CN(C)CCCNCCNC(=O)/C=N\O.Cl | -46.7% |
| O=C(O)c1ccccc1-c1ccccc1C(=O)Nc1cccc(O)c1 | 10.4% |
| CCOC(=O)Cn1c(=O)cc(C)c2ccccc21 | 14.7% |
| Fc1ccc(NC(=S)NCc2ccccc2Cl)cc1 | 12% |
| CCC(=O)Nc1nnc(SCc2cccc(F)c2)s1 | 6.14% |
| COC(=O)c1cc(S(=O)(=O)N2CCN(C3CCCCC3)CC2)c[nH]1 | -1.64% |
| CCNc1nc(NC(C)C)nc(ON=C(C)C)n1 | 6.83% |
| CCOc1ccc(N2C(=O)CC(N(Cc3ccco3)C(=O)CC)C2=O)cc1 (centres unmarked) | -3.5% |
| NS(=O)(=O)c1cccc(NC(=O)CCS(=O)(=O)c2ccc(Cl)cc2)c1 | 10.3% |
| C/C=C/C1=CC(=O)C[C@H](c2ccc(OC)c(OC)c2)C1 | 10.2% |
| COc1ccccc1CNC(=O)COc1ccccc1C | 12.1% |
| COc1ccc(Nc2c3c(nc4c(-c5ccccc5)c(C)nn24)CCC3)cc1 | 0.598% |
| N#Cc1nc(Cc2ccccc2)oc1NCCc1ccccc1 | 9.75% |
| Cc1nn(-c2ccccc2)c(Cl)c1C(=O)NCCCCNC(=O)c1c(C)nn(-c2ccccc2)c1Cl | 0.0235% |
| COc1ccccc1Oc1ccc(NC(=O)c2ccccc2C)cc1 | 15.8% |
| COc1ccccc1CNC(=O)CCNS(=O)(=O)c1ccc2c(c1)oc(=O)n2C | 8.35% |
| Cc1cccc(N2C(=O)NC(=O)/C(=C\C=C\c3ccco3)C2=O)c1 | 15.4% |
| Cc1cc(C)cc(N(CC(=O)NCC2CCCO2)C(=O)CN2C(=O)COc3ccccc32)c1 (centres unmarked) | -9.77% |
| CC(=O)c1ccc(NC(=O)Nc2ccc(S(=O)(=O)N3CCCC3)cc2)cc1 | 17.7% |
| O=C(Nc1ccc2cccnc2c1)c1ccc(Br)cc1 | 17.7% |
| O=C(O)C1CCN(c2nc(-c3ccccc3)nc3c2oc2ccccc23)CC1 | -15% |

| Structure (SMILES) | hERG current change (%, negative = inhibition) at 1uM |
| --- | --- |
| COc1ccc(NC(=O)CN(C)CC(=O)Nc2ccc(Cl)cc2[N+](=O)[O-])cc1 | -11.1% |
| Cc1ccc(-c2nc(SCC(=O)N(C)c3c(N)n(Cc4ccccc4)c(=O)[nH]c3=O)n[nH]2)cc1 | 15.9% |
| COc1cc(O)oc1C=Nc1ccc(Cl)cc1Cl | 11% |
| COc1cc(C(=O)NC(C)Cc2cccs2)cc(OC)c1OC (centres unmarked) | -13.1% |
| CCOc1ccc(C(=O)N[C@H](C(=O)O)C(C)C)cc1 | 10.5% |
| COc1cc(C2c3sc(=O)[nH]c3SC3C(=O)N(c4ccc(Br)cc4)C(=O)C32)ccc1O (centres unmarked) | -0.407% |
| CCOc1cccc(C2c3c(oc4ccccc4c3=O)C(=O)N2c2ccccn2)c1 (centres unmarked) | 8.31% |
| COc1ccc(CN(CC2CCCO2)C(=O)c2cc3ccccc3oc2=O)cc1 (centres unmarked) | 3.59% |
| Cc1nnc(SCc2ccc(F)cc2)s1 | 8.55% |
| CCn1nc(C)cc1C(=O)N1CCCC(N2CCN(c3ccccc3OC)CC2)C1 (centres unmarked) | 1.73% |
| Cc1ccc(C)c(S(=O)(=O)N2CCN(C(=O)c3ccccn3)CC2)c1 | 4.9% |
| CN(C)CCCN(C(=O)C1COc2ccccc2O1)c1nc2cc3c(cc2s1)OCO3.Cl (centres unmarked) | -21.3% |
| CSc1ccc(C2N=C(c3ccccc3)NO2)cc1 (centres unmarked) | 16.1% |
| COc1ccc(C2CC(c3ccccc3OC(C)=O)=NN2C(=O)/C=C/c2ccccc2)cc1 (centres unmarked) | 11.4% |
| CC1CN(S(=O)(=O)c2ccc(C(=O)OCc3ccc(C#N)cc3)cc2)CC(C)O1 (centres unmarked) | -0.886% |
| Cc1oc(-c2ccccc2)cc1C(=O)Nc1cccc(C(=O)O)c1 | -2.54% |
| O=C(Cn1cc2c(n1)CCCCC2)Nc1c(F)c(F)cc(F)c1F | 12.2% |
| Cc1cc(C)c(C(=O)C(C)OC(=O)c2ccc(Cl)nc2)cc1C (centres unmarked) | 13.7% |
| O=C(CCCn1c(=O)[nH]c2cc(Cl)ccc2c1=O)NCCCN1CCN(c2ccc(F)cc2)CC1 | -15.4% |
| COc1cc([N+](=O)[O-])cc(/C=N/NC(=O)Cn2nc(C)cc2C)c1O | 15.4% |
